# Data: PubChem BioAssay AID1508642 (National Center for Advancing Translational Sciences (NCATS), 2021)
# The campaign covered roughly 43,000 compounds. About 200 (0.47%) were called active. Another 12% or so got no clear call; they are omitted. Calls follow the shape of the dose curve; as a rule, active = well fitted cell-killing curve with a large enough effect; inconclusive = small, poorly fitted or top-dose-only effect, or effect the other way; inactive = flat fitted curve, though single readings scatter. The list shows a part of the results.
# Test: Cell viability qHTS assay in S16 Pmp22-F2sN cells; also: nearly all actives have a fitted effect of over 65% in size
# Settings: S16 Pmp22-F2sN Schwann cells viability, CellTiter-Glo, 24 h; series mostly up to 57.5 µM; activity change, negative = cytotoxicity: at the top concentration
# Summary of the method: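 Viability was measured by CellTiter-Glo luminescence (15 min, room temperature). This followed 24 h at 37 °C of compound exposure (23 nL pin transfer) in S16 Pmp22-F2sN Schwann cells, 500-1,000 per well.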
# % is scaled to controls: 0 for no effect and ±100 for the full control effect; potency is read from the fitted curve at half-maximal effect.
SMILES,"activity change, negative = cytotoxicity",Potency
COc1ccc(-c2cn3c(n2)sc2cc(C(=O)Nc4cc(OC)cc(OC)c4)ccc23)cc1,inactive: -1.97%,–
CCc1ccc(-n2c(=O)c3cccnc3n2CC(=O)Nc2ccccc2C(F)(F)F)cc1,inactive: -1.09%,–
N#Cc1c(NC(=O)CS(=O)(=O)c2ccc(Cl)cc2)sc2c1CCCCC2,inactive: 3.12%,–
COc1ccc(-c2ccc(CCC(=O)O)n2CC(=O)Nc2cccc(C(F)(F)F)c2)cc1,inactive: 0.648%,–
Cc1cccc(-n2c(=O)c3c(c4cc(C)ccc4n3C)n(CC(=O)Nc3ccc(C)cc3C)c2=O)c1,inactive: -11.8%,–
Cc1ccc(C(=O)Nc2ccc3oc(-c4ccncc4)nc3c2)c(Cl)c1,inactive: 6.24%,–
CC(C)Cn1cc(NC(=O)NCc2ccccc2Cl)c2ccccc2c1=O,inactive: -4.6%,–
CC(NC(=O)C1CCN(S(=O)(=O)c2ccc3nc4c(c(C(=O)O)c3c2)CCCC4)CC1)c1ccccc1 (stereo not drawn),inactive: -0.161%,–
Cc1ccc(NC(=O)CCS(=O)(=O)c2cc(Br)cc3c2N(C(=O)C2CC2)CC3)cc1,inactive: 4.56%,–
COc1cccc(NC(=O)c2ccc3nc(Cc4ccccc4)oc3c2)c1,inactive: -8.85%,–
Cn1c(=O)c2nc(SCC(=O)Nc3ccc(Cl)c(Cl)c3)n(C)c2n(C)c1=O,inactive: 1.55%,–
Cc1ccc(CN(Cc2ccco2)c2cnc(S(C)(=O)=O)nc2C(=O)Nc2ccccc2Br)o1,inactive: 2.79%,–
COc1ccc(CNC(=O)Cn2nc(C)c3c(C)n(-c4ccccc4)nc3c2=O)cc1OC,inactive: 17.7%,–
CCCCc1ccc(NC(=O)C2(C)Cc3ccccc3C(=O)O2)cc1 (stereo not drawn),inactive: 17.7%,–
CCc1ccc(C2CC(=O)Oc3c2c(=O)n(C)c2ccccc32)cc1 (stereo not drawn),inactive: 1.45%,–
Cc1cccc(-c2nc(C(N)=O)c3c(n2)n(-c2ccc4c(c2)OCO4)c(=O)n3C)c1,inactive: 13.8%,–
COc1ccc(N(C)C(=O)c2cc(S(=O)(=O)N3CCc4ccccc43)cn2C)c(OC)c1,inactive: 1.19%,–
O=C(Nc1ccc(Cl)cc1)c1cc2c(-c3ccccc3)nn(-c3ccccc3)c2s1,inactive: -0.64%,–
Cc1nn(CC(=O)N2CCCCC2)c(=O)c2cc3occc3n12,inactive: 7.39%,–
CCOC(=O)CSc1nc2ccc(NC(=O)COc3ccccc3C)cc2s1,inactive: 5.89%,–
Cc1ccc(Cl)cc1NC(=O)CCS(=O)(=O)c1ccc2c(c1)n(C)c(=O)c(=O)n2C,inactive: -3.15%,–
Cc1ccc(-n2c3nc(=O)[nH]c(=O)c-3cc3c(C)nn(-c4ccccc4)c32)c(C)c1,inactive: 11.8%,–
Cc1ccc(NC(=O)c2c(NC(=O)c3ccccc3)sc3c2CCC3)cc1,inactive: 0.451%,–
CC1CCc2c(sc(NC(=O)c3cc(-c4ccc(F)cc4)on3)c2C(N)=O)C1 (stereo not drawn),inactive: 20.2%,–

SMILES,"activity change, negative = cytotoxicity",Potency
Cc1ccc2sc(N(Cc3cccnc3)C(=O)C3COc4ccccc4O3)nc2c1C (stereo not drawn),inactive: -21.9%,–
CC(C)Cn1c(=O)c2sccc2n2c(CCCC(=O)NC3CCCCC3)nnc12,inactive: 18.1%,–
CCN(CC)CCNC(=O)c1ccc(-n2c(-c3ccccc3)cc3c2CCCC3)cc1,inactive: 23.3%,–
Cc1cc(C)cc(NC(=O)C2CCN(S(=O)(=O)c3cccc(-c4noc(C)n4)c3)CC2)c1,inactive: -5.53%,–
COc1ccc(S(=O)(=O)c2nnn(-c3ccc(C)c(Cl)c3)c2C)cc1,inactive: -1.48%,–
Cc1cccc(NC(=O)C(=O)NCCc2csc(-c3ccc(C(F)(F)F)cc3)n2)c1C,inactive: 6.09%,–
O=C(CC1N=C2c3ccccc3N=C(SCC(=O)Nc3ccccc3F)N2C1=O)NCc1cccs1 (stereo not drawn),inactive: -2.68%,–
CC1=Nc2cc(C(=O)NC(C)C)ccc2Sc2ccc(C)cc21,inactive: -19.3%,–
Fc1ccc(Br)cc1C1C=C(c2ccc(Br)cc2)Nc2nnnn21 (stereo not drawn),inactive: -7.24%,–
Cc1ccc(CNC(=O)CCCN2C(=O)COc3ccc(C)cc32)cc1,inactive: -33%,–
COc1ccc2oc(-c3cccc(NC(=O)c4sc5c([N+](=O)[O-])cccc5c4Cl)c3)nc2c1,inactive: 2.63%,–
O=c1c2sc3ccccc3c2n(Cc2cccc(C(F)(F)F)c2)c(=O)n1Cc1ccc(F)cc1,inactive: 1.65%,–
O=c1oc2ccccc2cc1-c1cn2cc(Cc3ccc(Br)cc3)sc2n1,inactive: -0.671%,–
Cc1cccc(C)c1Nc1c(-c2ccc(O)cc2)nc2sccn12,inactive: 15.2%,–
CCOc1ccc(S(=O)(=O)NCCc2sc3nc(-c4ccc(C)cc4)nn3c2C)cc1,–,active: 20 µM
Cc1cc(C)cc(-n2ccn(Cc3ccc(F)cc3)c(=O)c2=O)c1,inactive: -10.1%,–
CCCn1c(CCC(=O)Nc2ccccc2OC)nc2cccnc21,inactive: 5.58%,–
COc1ccc(NC(=O)CC2C(=O)N(c3cccc(OC)c3)C(=O)N2Cc2ccc3c(c2)OCO3)cc1 (stereo not drawn),inactive: -1.62%,–
CCOc1ccc2nc(N3CCCC(C(=O)NCc4ccccc4OC)C3)sc2c1 (stereo not drawn),inactive: 4.72%,–
Cc1ccc(Cl)cc1NC(=O)C1CCN(c2nc3ccccc3n3cccc23)CC1,inactive: 4.56%,–
CCCn1c2ccccc2c2cnn(CC(=O)NCCc3ccc(C)cc3)c(=O)c21,inactive: -4.05%,–
CCCCOC(=O)c1ccc(Nc2nnc(-n3nc(C)cc3C)c3ccccc23)cc1,inactive: -15.1%,–
Cc1nnc2c3ccccc3nc(Nc3cccc(O)c3)n12,inactive: -8.07%,–
COc1ccc(-c2noc(CSc3nc(N)cc(=O)[nH]3)n2)cc1OC,inactive: 5.12%,–
